In PMC4336329 (PLoS ONE, 2015):
The campaign covered roughly 310,000 compounds. About 2,200 (0.71%) showed an effect of 50% or more. Effects have a minus sign here. Some of the results follow.

These molecules were tested against human ether-à-go-go-related gene (hERG) potassium channel (human, UniProt Q12809) (assay: primary screen, population patch clamp on CHO cells stably expressing hERG).
Chain of human ether-à-go-go-related gene (hERG) potassium channel (Q12809 whole entry, looked up): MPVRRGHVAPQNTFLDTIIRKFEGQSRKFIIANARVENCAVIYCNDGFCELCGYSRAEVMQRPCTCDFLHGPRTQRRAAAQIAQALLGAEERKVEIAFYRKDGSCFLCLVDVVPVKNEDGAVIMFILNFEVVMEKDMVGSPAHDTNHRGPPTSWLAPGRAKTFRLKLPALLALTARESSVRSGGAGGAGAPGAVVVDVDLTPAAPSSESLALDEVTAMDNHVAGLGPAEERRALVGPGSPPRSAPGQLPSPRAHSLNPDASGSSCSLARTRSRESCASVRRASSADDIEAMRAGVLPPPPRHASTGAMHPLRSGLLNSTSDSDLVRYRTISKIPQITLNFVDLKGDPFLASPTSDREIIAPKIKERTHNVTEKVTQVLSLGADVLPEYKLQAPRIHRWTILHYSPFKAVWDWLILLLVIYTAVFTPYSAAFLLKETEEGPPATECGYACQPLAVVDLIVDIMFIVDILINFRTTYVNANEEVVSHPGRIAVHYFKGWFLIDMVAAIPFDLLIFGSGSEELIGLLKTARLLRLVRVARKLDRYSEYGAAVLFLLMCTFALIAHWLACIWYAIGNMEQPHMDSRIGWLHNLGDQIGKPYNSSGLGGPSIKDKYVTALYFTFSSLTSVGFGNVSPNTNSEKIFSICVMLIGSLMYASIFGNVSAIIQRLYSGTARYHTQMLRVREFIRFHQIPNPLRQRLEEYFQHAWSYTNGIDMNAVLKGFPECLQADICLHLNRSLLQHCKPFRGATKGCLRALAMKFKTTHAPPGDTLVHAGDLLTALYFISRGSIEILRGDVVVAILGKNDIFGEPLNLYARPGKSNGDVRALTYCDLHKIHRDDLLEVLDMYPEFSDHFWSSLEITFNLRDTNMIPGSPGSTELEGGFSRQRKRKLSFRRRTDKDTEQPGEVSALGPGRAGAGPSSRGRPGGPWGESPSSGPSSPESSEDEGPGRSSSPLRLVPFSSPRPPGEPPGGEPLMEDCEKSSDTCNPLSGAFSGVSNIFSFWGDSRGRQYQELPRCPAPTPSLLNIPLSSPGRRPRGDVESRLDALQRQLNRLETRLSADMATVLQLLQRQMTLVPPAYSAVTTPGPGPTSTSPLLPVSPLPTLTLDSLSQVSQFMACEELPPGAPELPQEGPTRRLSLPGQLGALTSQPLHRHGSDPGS

Row | Structure (SMILES) | hERG current change (%, negative = inhibition) at 1uM [%]
1 | CCOc1ccc(NC(=O)CN2C(=O)C3CCCN3C2=O)cc1 (stereo not shown) | 7.85
2 | CCOP(=O)(OCC)C(Nc1cc(Cl)cc(Cl)c1)c1cccc(O)c1 (stereo not shown) | 7.45
3 | O=C(NCCC1=CCCCC1)c1cccc(S(=O)(=O)N2CCCCC2)c1 | -3.33
4 | COC(=O)c1sc2ncccc2c1OCc1ccc(Cl)cc1Cl | 2.33
5 | CCn1cc(CNC(=O)c2c(-c3c(Cl)cccc3Cl)noc2C)c(C)n1 | 8.31
6 | CC(C)N(C)S(=O)(=O)c1ccc(NC(=O)C2=COCCO2)cc1 | 12.9
7 | CN(CC(=O)Nc1ccc(Cl)c(Cl)c1)C(=O)C12CC3CC(CC(C3)C1)C2 | 7.66
8 | O=C(NC1CCNCC1)C1CCCCC1 | 10.4
9 | Cc1ccc(NC2CCCN(C(=O)c3cn4cccc(C)c4n3)C2)cc1C (stereo not shown) | 1.16
10 | NN(CCO)C(=S)Nc1ccc(Cl)cc1 | 10.7
11 | COc1ccccc1-c1cc(-c2ccccc2)nc(SCC(=O)O)c1C#N | 14.8
12 | C[C@H]1CN=C(N(C)C)N1CCc1ccc(F)cc1 | 3.31
13 | CC(C)c1ccc(C(C)NCCS(=O)(=O)c2ccc(Br)cc2)cc1 (stereo not shown) | 14.7
14 | COc1ccc(C(=O)CSc2nnc(CNc3ccc(C)cc3C)o2)cc1 | 10.2
15 | Cc1c(NS(=O)(=O)c2ccc3c(c2)NC(=O)CC(=O)N3)cccc1[N+](=O)[O-] | 16.1
16 | O=C(O)c1cc(S(=O)(=O)N2CCCCC2)ccc1N1CCCCC1 | 5.64
17 | O=C(Nc1cccc(-c2ccc(F)cc2)c1)C1CCCN(Cc2cccnc2)C1 (stereo not shown) | 6.67
18 | Cc1ccc(/C=C/C(=O)NCc2cccs2)c(C)c1 | 13.7
19 | Cl.O=C(O)C1CCN(Cc2cccnc2)CC1 | 14.1
20 | COc1ccccc1N1CCN(C(CNC(=O)C2CCCCC2)c2cccnc2)CC1 (stereo not shown) | 5.78
21 | COc1ccc(C2SCCN2S(=O)(=O)c2ccccc2)cc1OC (stereo not shown) | 11
22 | O=C(Nc1cc2c(cc1Cl)OCCCO2)c1ccc(F)cc1 | 6.35

Row | Structure (SMILES) | hERG current change (%, negative = inhibition) at 1uM [%]
23 | CCC(C)c1ccc(NC(=O)NCc2cccnc2)cc1 (stereo not shown) | 2.16
24 | O=C(O)C(=O)O.O=C(c1ccccc1)c1ccc(OCCCN2CCCCC2)cc1 | -30.4
25 | CCNC(=O)C(C)Oc1ccc(Cl)cc1Cl (stereo not shown) | 12.3
26 | Cc1ccc(S(=O)(=O)N(CC(=O)N/N=C/c2cccc(Cl)c2)c2cccc3cccnc23)cc1 | 2.6
27 | O=C(CCn1cccc1)NCCc1ccc(Cl)cc1 | 13.7
28 | Cc1ccc(S(=O)(=O)Cn2nnnc2C(C)N2CCN(C(=O)c3ccco3)CC2)cc1 (stereo not shown) | -9.64
29 | O=C(CCCC(=O)N(CC(=O)NC1CCCC1)Cc1ccccc1)Nc1ccccn1 | 4.48
30 | O=C(CCN1C(=O)/C(=C/c2ccccc2Cl)SC1=S)Nc1ccccn1 | 5.66
31 | CCCC(=O)NC(c1cccs1)c1cc(Cl)c2cccnc2c1O (stereo not shown) | 3.81
32 | Cc1cccc(-n2cnc(C(=O)NC3CCCCCC3)c2)n1 | 3.68
33 | O=C(O)c1cccc(-n2cccc2/C=C2/NC(=O)N(c3cccc(Cl)c3)C2=O)c1 | 5.88
34 | O=C(Nc1ccn(Cc2ccc(F)cc2)n1)c1ccncc1 | 21.1
35 | CC1CCC(NC(=O)COC(=O)c2n[nH]c(=O)c3ccccc23)CC1 (stereo not shown) | -1.34
36 | C/C(=C/C(=O)N1CCN(C)CC1)C(=O)O | 5.2
37 | O=C(Nc1ccc2c(c1)OCCO2)NC1CCCCC1 | -1.47
38 | CNC(=O)c1cc(Cl)c(OC)c(OC)c1 | 12.2
39 | FC(F)(F)c1nnc(N2CCN(c3ccc(Cl)cc3)CC2)s1 | 13
40 | COc1ccc(Cl)cc1NC(=O)CN(C)C(=O)c1cc2c(F)cccc2s1 | 7.74
41 | Cc1ccc2c(c1)nnn2C1CCN(S(=O)(=O)c2ccc(C(=O)O)cc2)CC1 | 13.1
42 | CCOC(=O)C1CCN(CCC(=O)Nc2cccc(Cl)c2C)CC1 | 4.5
43 | CC(c1nccs1)N(C)c1nc2nonc2nc1N(C)C (stereo not shown) | 6.15
44 | CCN(CC)S(=O)(=O)c1ccc(N/N=C/c2cccnc2)nc1 | -2.46

Row | Structure (SMILES) | hERG current change (%, negative = inhibition) at 1uM [%]
45 | CC(=O)n1cc([C@H]2C=C(C(=O)N3CCN(Cc4ccc5c(c4)OCO5)CC3)O[C@@H](OCCCCO)C2)c2ccccc21 | -1.56
46 | Cc1nc(S(=O)(=O)c2ccc(Br)cc2)nc2c1CCC2 | 10.5
47 | COC(=O)Cn1cnc2c(oc3ccccc32)c1=O | 11.1
48 | C#CC[N+](C)(C)CCCCCCCCCC.[Br-] | -0.39
49 | Cc1cccc(C)c1OCc1nc2ccccc2c(=O)n1/N=C/c1c[nH]c2ccccc12 | 9.22
50 | C[C@H](NC(=O)c1[nH]cnc1C(=O)Nc1ccc(CNC(=O)OC(C)(C)C)cc1)C(=O)OCc1ccccc1 | 4.09
51 | O=C1NC(=O)c2cc([N+](=O)[O-])cc3cccc1c23 | 10.3
52 | CCCc1[nH]n(-c2ccc([N+](=O)[O-])cc2)c(=O)c1C=NCCc1ccc(OC)c(OC)c1 | 4.23
53 | CCOc1cc(C(C(=O)NCC2CCCO2)N(C(=O)Cn2nnc3ccccc32)c2ccccc2C(C)=O)ccc1O (stereo not shown) | 9
54 | O=C(c1ccc(S(=O)(=O)c2ccccc2Cl)c([N+](=O)[O-])c1)N1CCCCCC1 | -0.441
55 | O=C(c1cc(-c2ccc(Cl)cc2Cl)on1)N1CCN(C(=O)c2ccco2)CC1 | -10.6
56 | O=C(O)COc1ccc(C(=O)Cc2ccc3c(c2)OCCCO3)c(O)c1 | 9.52
57 | Cc1ccc(NS(=O)(=O)c2ccc(C(=O)NCCCN3CCOCC3)cc2)cc1 | 3.25
58 | C=CCC(NCc1ccco1)c1ccc(OC)cc1 (stereo not shown) | 19.8
59 | CC(=O)NC1C(OCc2ccccc2)OC(COC(C)=O)C(OC(C)=O)C1OC(C)=O (stereo not shown) | 15.8
60 | COc1cccc(CNC(=O)COC(=O)c2cc(Br)c(Br)s2)c1 | 14.1
61 | CC(C)CC1NC(=O)N(CC(=O)Nc2ccc(-c3ccccc3)cc2)C1=O (stereo not shown) | 10
62 | COc1ccc2nc(NC(=O)CCN3C(=O)c4ccccc4C3=O)sc2c1 | 3.41
63 | O=c1ccc(-c2n[nH]c(=S)n2-c2ccc(F)c(Cl)c2)n[nH]1 | 14.8
64 | C/C(=N/N1CCN(Cc2cccc3ccccc23)CC1)c1cccnc1 | -4.88
65 | N/C(=N\OC(=O)Cc1ccccc1)c1ccncc1 | 11.7
66 | CCOC(=O)NC1(C(F)(F)F)C(=O)NC(C)=C1C(=O)OC (stereo not shown) | 5.34

Row | Structure (SMILES) | hERG current change (%, negative = inhibition) at 1uM [%]
67 | Cc1ccc(NC(=O)CN(C)C(=O)/C=C/c2ccc3c(c2)OCO3)cc1 | -4.6
68 | CCN(CC(=O)NC(=O)NCc1ccccc1)Cc1nc2ccccc2c(=O)[nH]1 | 6.57
69 | Cc1ccc(OCC(=O)NC(=S)Nc2cccc(NC(=O)c3ccccc3Cl)c2)cc1 | -0.0695
70 | C=CCN(c1ccc(C(=O)Nc2ccc(C)cc2)cc1)S(C)(=O)=O | 8.12
71 | O=C(CSc1ccccn1)N1CCN(c2ncc(C(F)(F)F)cc2Cl)CC1 | -4.57
72 | Cc1nc(SCC#N)c2c3c(sc2n1)CCC3 | -3.28
73 | CC(CCc1ccccc1)NC(=O)CCCCCNc1nc(=S)[nH]c2ccccc12 (stereo not shown) | 5.34
74 | Cc1noc(C)c1S(=O)(=O)N1CCC2(CC1)OCCO2 | 11.7
75 | CC(=O)Oc1cccc(/C=C2\Sc3ccccc3C2=O)c1 | 11.1
76 | CC(=O)Nc1ccc(N2CCN(c3ccc(C(F)(F)F)cn3)CC2)nc1 | 8.34
77 | O=C(COC(=O)Cc1c[nH]c2ccccc12)Nc1cccc2ccccc12 | 12
78 | Cc1cc(OCC(=O)NC(Cc2ccc(Cl)cc2)C(=O)O)c2c(C)cc(=O)oc2c1 (stereo not shown) | 6.06
79 | CCCS(=O)(=O)c1c(S(=O)(=O)CCC)c2c(N)cccn2c1C(=O)c1ccccc1 | 9.79
80 | CCOC(=O)N1CCN(S(=O)(=O)c2ccc(-n3cnnn3)cc2)CC1 | -6.68
81 | CC(=O)Nc1ccc(NC(=O)COC(=O)CCCc2c[nH]c3ccccc23)cc1 | 5.96
82 | CS(=O)c1ccccc1-c1nc(-c2ccc(Cl)cc2)no1 (stereo not shown) | 5.58
83 | COc1ccc(N2C(=O)C(CC(N)=O)N(NC(=O)c3cccc(OC)c3)C2=S)cc1 (stereo not shown) | 17.4
84 | Cc1nnc(SCCn2c(N3CCN(C)CC3)nc3c2c(=O)[nH]c(=O)n3C)s1 | 8.37
85 | CCOC(=O)c1n[nH]n2c1nc(=O)c1ccccc12 | 16.7
86 | Cc1ccc(C(=O)NCCN2C3=NC[C@H](C(C)C)N3C[C@H]2Cc2ccc(O)cc2)cc1Br | 0.0506
87 | CCOC(=O)c1cc(C)n(-c2ccccc2)c1C | 11.9
88 | CC(C)CN(C(=O)CCc1ccccc1)c1c(N)n(CC(C)C)c(=O)[nH]c1=O | 6.51
